Assay results from PubChem BioAssay AID2147 (National Center for Advancing Translational Sciences (NCATS), 2009).
Among all 230,000 compounds or so, about 3,600 (1.6%) were called active. Inconclusive results, whose numbers are uncertain, are shown with a selection of clear calls. The call rests on the fitted dose curve; in most records, active means well fitted inhibition curve with a large enough effect (not every such curve was filed as active); inconclusive means small, poorly fitted or top-dose-only effect, or another doubt; inactive means no such curve, though single readings can be large or run the other way. Potencies of inconclusive entries are doubtful fits and often do not repeat.
Further: nearly all actives have a fitted effect of over 50% in size.
Potency means the concentration at half of the fitted maximal effect; tags describe the fitted curve by direction and shape.

These molecules were tested against Lysine-specific demethylase 4E (Homo sapiens) (UniProt B2RXH2) (assay: qHTS Assay for Inhibitors of Human Jumonji Domain Containing 2E (JMJD2E)). Conditions: JMJD2E catalytic domain, FDH-coupled NADH fluorescence (FDH is formaldehyde dehydrogenase); series mostly up to 57.1 µM.
UniProt B2RXH2, sequence (B2RXH2 whole entry, looked up, the tested form may be a part): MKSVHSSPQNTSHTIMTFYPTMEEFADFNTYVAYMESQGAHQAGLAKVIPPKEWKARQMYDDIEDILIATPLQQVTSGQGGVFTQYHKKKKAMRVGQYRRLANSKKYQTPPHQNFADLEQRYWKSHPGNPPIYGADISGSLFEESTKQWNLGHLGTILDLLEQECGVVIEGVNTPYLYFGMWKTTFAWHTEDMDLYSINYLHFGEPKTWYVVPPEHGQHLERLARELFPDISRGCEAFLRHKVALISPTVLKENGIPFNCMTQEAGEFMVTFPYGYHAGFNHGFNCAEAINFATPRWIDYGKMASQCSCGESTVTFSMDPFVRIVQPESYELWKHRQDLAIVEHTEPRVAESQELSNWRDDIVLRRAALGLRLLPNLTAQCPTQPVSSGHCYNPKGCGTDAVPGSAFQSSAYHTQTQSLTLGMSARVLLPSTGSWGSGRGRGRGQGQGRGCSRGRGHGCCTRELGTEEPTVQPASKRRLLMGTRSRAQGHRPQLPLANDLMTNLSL
For Cc1cc(NC(=O)CSc2nc3c(sc4ccccc43)c(=O)n2CCCN2CCOCC2)n[nH]1, the Potency was inconclusive: 39.8 µM [inhibitor, single point].
In the case of CCOC(=O)c1cc(-c2ccccc2)n(CCC(=O)N2CCN(c3ccccn3)CC2)c1C, the Potency is reported as inconclusive: 35.5 µM [inhibitor, single point].
With COc1cc2nc(C(C)(C)C)oc(=O)c2cc1OC the Potency was inconclusive: 39.8 µM [inhibitor, single point].
For Cc1nn(CCc2n[nH]c(=S)n2-c2cccc(Cl)c2)c(C)c1[N+](=O)[O-], the Potency was “inactive”.
With O=C(c1cccs1)N1CCc2ccccc21 the Potency was “inactive”.
O=C(NC1CCCCC1)c1cccs1 was tested, and the Potency was “inactive”.
For NS(=O)(=O)c1ccc(CCNC(=O)CSc2nnc3ccccn23)cc1, the Potency was inconclusive: 35.5 µM [inhibitor, single point].
CCN1CCCC1CN(Cc1cc2ccc(C)cc2[nH]c1=O)C(=S)Nc1cccc(OC)c1 (stereo not drawn) was tested, and the Potency was inconclusive: 5.01 µM [inhibitor, single point].
For Cc1ccc(-c2cc(C(F)(F)F)c(C#N)c(SCCC#N)n2)o1, the Potency was inconclusive: 8.91 µM [inhibitor, partial curve].
For Cc1c(Cc2ccccc2)sc(NC(=O)c2ccco2)c1C(N)=O, the Potency was inconclusive: 35.5 µM [inhibitor, single point].
In the case of CC1=C(C(=O)N(C)C)C(c2cccs2)NC(=O)N1 (stereo not drawn), the Potency is reported as inconclusive: 39.8 µM [inhibitor, single point].
With O/N=C(/Cc1ccccn1)c1ccccc1 the Potency was “inactive”.
In the case of CC(=O)c1c(C)nc(Nc2nc(C)c3cc(C)ccc3n2)nc1C, the Potency is reported as inconclusive: 31.6 µM [inhibitor, partial curve].
In the case of CCCCOc1ccc(/C=C/C(=O)OCC(=O)c2c(N)n(C)c(=O)n(C)c2=O)cc1OCC, the Potency is reported as inconclusive: 28.2 µM [inhibitor, partial curve].
For CCSc1ncnc2c1sc1nc(-c3ccco3)c3c(c12)CC(C)(C)OC3, the Potency was “inactive”.
For O=C(/C=C1\C(=O)Nc2ccccc21)/C=C1\C(=O)Nc2ccccc21, the Potency was inconclusive: 39.8 µM [inhibitor, single point].
O=[N+]([O-])c1ccc(O)c(/C=N/Nc2ccccn2)c1 was tested, and the Potency was inconclusive: 28.2 µM [inhibitor, single point].
In the case of COc1ccc(NC(=O)c2ccc(-c3ccccc3)cc2)cc1S(=O)(=O)N1CCOCC1, the Potency is reported as inconclusive: 28.2 µM [inhibitor, single point].
In the case of Cc1ccccc1-n1cnc2cc(NCc3cccs3)ccc21, the Potency is reported as inconclusive: 39.8 µM [inhibitor, single point].
For Cc1cc(NCCCN2CCOCC2)n2c(nc3ccccc32)c1C#N, the Potency was inconclusive: 28.2 µM [inhibitor, partial curve].
With Cc1onc(-c2ccccc2Cl)c1C(=O)NCc1ccccn1 the Potency was “inactive”.
CCc1ccc2c(c1)[C@H]1OCC[C@H]1[C@@H](c1cccs1)N2 was tested, and the Potency was “inactive”.
For OCCn1c(CSc2nc3ccccc3n2CCO)nc2ccccc21, the Potency was inconclusive: 35.5 µM [inhibitor, single point].
For CCOc1ccccc1C(=O)N1CCN(c2ccc(C(F)(F)F)cn2)CC1, the Potency was inconclusive: 31.6 µM [inhibitor, single point].
With CCC1CCCCN1C(=O)Cn1c(C(=O)OC)cc2sc(Cl)cc21 (stereo not drawn) the Potency was “inactive”.
In the case of CC(=O)c1ccc(-n2cc(-c3ccc(C(C)(C)C)cc3)[n+]3c2SCCC3)cc1, the Potency is reported as “inactive”.
In the case of COc1ccc(NC(=O)/C(=C/c2cccnc2)NC(=O)c2cccs2)cc1, the Potency is reported as “inactive”.
COC(=O)C1(Cc2ccc(O)c(CC3OC3(C)C)c2)OC(=O)C(O)=C1c1ccc(O)cc1 (stereo not drawn) was tested, and the Potency was inconclusive: 28.2 µM [inhibitor, single point].
COc1ccc(Nc2c(-c3ccco3)nc3cccc(C)n23)cc1 was tested, and the Potency was inconclusive: 28.2 µM [inhibitor, partial curve].
CCN(CC)c1ccc(NC(=O)c2cccnc2)cc1 was tested, and the Potency was “inactive”.
With O=C1c2ccccc2NC(c2ccc3c(c2)OCCO3)N1c1ccc2c(c1)OCCO2 (stereo not drawn) the Potency was inconclusive: 31.6 µM [inhibitor, single point].
CC1SC(C)C(=O)N(CC(=O)Nc2ccc3c(c2)OCO3)C1=O (stereo not drawn) was tested, and the Potency was inconclusive: 39.8 µM [inhibitor, single point].
Oc1c(C(c2ccccn2)N2CCCCC2)cc(Cl)c2cccnc12 (stereo not drawn) was tested, and the Potency was inconclusive: 35.5 µM [inhibitor, single point].
In the case of Cn1cc(C(=O)CCl)c2ccccc21, the Potency is reported as “inactive”.
For C=CCn1c(-c2ccccc2)cc(SC)c(C#N)c1=O, the Potency was inconclusive: 39.8 µM [inhibitor, single point].
For CCCCC(=O)NCCc1cc2ccc(OC)cc2[nH]c1=O, the Potency was inconclusive: 39.8 µM [inhibitor, single point].
In the case of COc1ccc(-c2nnc(-c3cc(OC)c(OC)c(OC)c3)o2)cc1OC, the Potency is reported as inconclusive: 31.6 µM [inhibitor, partial curve].
With COC(=O)c1sccc1NC(=O)CC1NCCNC1=O (stereo not drawn) the Potency was inconclusive: 35.5 µM [inhibitor, single point].
For COC(=O)Nc1c(-c2ccccc2)nc2ccccn12, the Potency was inconclusive: 25.1 µM [inhibitor, partial curve].
With Cc1cc(C)c(S(C)(=O)=O)c(Oc2cccc(C(F)(F)F)c2)n1 the Potency was inconclusive: 0.708 µM [inhibitor, single point].
For O=C(Nc1ccc([N+](=O)[O-])cc1Cl)c1cc(Cl)ccc1O, the Potency was “inactive”.
For CC(NC(=O)CSc1nnc(-c2cc3cc(Cl)ccc3o2)n1C)c1ccccc1 (stereo not drawn), the Potency was “inactive”.
With CCCCNC(=S)Nc1ccc2nc3n(c(=O)c2c1)CCCCC3 the Potency was inconclusive: 39.8 µM [inhibitor, single point].
For N#Cc1c(N)n[nH]c1-c1cc2c([nH]1)CCCC2, the Potency was inconclusive: 35.5 µM [inhibitor, single point].
S=C(NC1CCCCC1)N1CCOCCOCCN(C(=S)NC2CCCCC2)CCOCCOCC1 was tested, and the Potency was inconclusive: 39.8 µM [inhibitor, single point].
CCCOc1ccc(-c2nc(C#N)c(N3CCC(C(N)=O)CC3)o2)cc1 was tested, and the Potency was inconclusive: 12.6 µM [inhibitor, partial curve].
With Cc1cc(C)c(C)c(S(=O)(=O)N[C@@H](C)C(=O)OCc2cc(=O)n3cc(Br)ccc3n2)c1C the Potency was inconclusive: 2.82 µM [inhibitor, partial curve].
In the case of CCCCOc1ccc(C(=O)Nc2ccc3c(c2)OCO3)cc1, the Potency is reported as inconclusive: 39.8 µM [inhibitor, single point].
In the case of COc1cccc(Nc2nc(N)nc(-c3oc4ccccc4c3C)n2)c1, the Potency is reported as inconclusive: 39.8 µM [inhibitor, single point].
COCCN1Cc2cccc(C(=O)Nc3cccc(-c4nc5ccccc5[nH]4)c3)c2C1=O was tested, and the Potency was inconclusive: 28.2 µM [inhibitor, partial curve].
With O=C(Nc1ccc(N2CCCC2)c(Cl)c1)c1cccs1 the Potency was “inactive”.
With Cc1cc(C)c2c3c(oc2n1)C(=O)N(c1cccc(Cl)c1)CC(=O)N3 the Potency was “inactive”.
For COC(=O)c1cc(Cc2ccc(N)c(C(=O)OC)c2)ccc1N, the Potency was inconclusive: 22.4 µM [inhibitor, partial curve].
With Cc1cc(C)n(CCCNCC(O)c2ccccc2)n1 (stereo not drawn) the Potency was “inactive”.
In the case of O=C(c1cnccn1)N1CCN(c2ccccc2)CC1, the Potency is reported as “inactive”.
With Cc1ccc(SC[C@H](c2ccccc2)N2CCN(CCc3ccccc3)CCC2=O)cc1 the Potency was inconclusive: 25.1 µM [inhibitor, single point].
With CC1Cc2nc(SCC(=O)Nc3ccc4c(c3)OCCO4)n(C)c(=O)c2S1 (stereo not drawn) the Potency was inconclusive: 31.6 µM [inhibitor, single point].
For CCN(C(=O)COC(=O)c1cc(=O)[nH]c2ccccc12)C1CCS(=O)(=O)C1 (stereo not drawn), the Potency was inconclusive: 25.1 µM [inhibitor, partial curve].
CNc1cncc(C(=O)O)c1 was tested, and the Potency was inconclusive: 28.2 µM [inhibitor, single point].
With N[C@H](C(=O)O)c1ccc(C(=O)O)c(O)c1 the Potency was inconclusive: 31.6 µM [inhibitor, partial curve].
CC(=O)O[C@@H]1CC2C(C)(C)C(=O)C=C[C@]2(C)C2CC[C@]3(C)C(=CC[C@H]3C3CO[C@@H](C(C)(C)O)[C@H](O)C3)[C@@]21C (stereo partly drawn) was tested, and the Potency was “inactive”.
COC(=O)c1cc(OC)c(OC)cc1NC(=O)c1cccc(C)c1 was tested, and the Potency was inconclusive: 31.6 µM [inhibitor, partial curve].
With CC(=O)c1c(C)[nH]c(C(=O)OCC(=O)Nc2ccc([N+](=O)[O-])cc2Cl)c1C the Potency was “inactive”.
With COc1cc(OC)c2c(C)cc(=O)oc2c1C(CCN1CCOCC1)c1ccc2c(c1)OCO2 (stereo not drawn) the Potency was inconclusive: 35.5 µM [inhibitor, single point].
In the case of O=c1cc(-c2ccc(O)c(O)c2)oc2cccc(O)c12, the Potency is reported as active: 20 µM.
O=C(Nc1nnc(C2=COCCO2)o1)c1ccc(Cc2ccccc2)cc1 was tested, and the Potency was inconclusive: 39.8 µM [inhibitor, single point].
O=C(NC1CCCCC1)C(=S)NCc1ccccc1 was tested, and the Potency was “inactive”.
In the case of CC(C)(C)c1ccc(NC(=O)COc2ccc(-n3ccnc3)cc2)cc1, the Potency is reported as “inactive”.
In the case of COc1ccc(-c2nc(-c3cccc(C)c3)nc(Cl)c2C#N)cc1, the Potency is reported as “inactive”.
With O=C(c1ccccc1)N1CCN(c2nc3ccc([N+](=O)[O-])cc3s2)CC1 the Potency was “inactive”.
CC#CCCCC(=O)Nc1ccccc1C(=O)O was tested, and the Potency was inconclusive: 39.8 µM [inhibitor, single point].
With Cn1nc(C(=O)NCc2ccccc2)c2ccccc2c1=O the Potency was “inactive”.
With O=C(O)c1cccc(NC(=S)N/N=C/c2ccccc2OCc2cccc(Br)c2)c1 the Potency was inconclusive: 25.1 µM [inhibitor, single point].
